Experimental data published in the antibiotic and cytotoxicity screens of Wong et al. (2023).
Some of the results follow.

Tested on: HepG2
Experiment: cytotoxicity call (relative viability < 0.9)
Conditions: 10 µM

SMILES | cytotoxicity call
C[C@H]1CCCCO[C@H](CN(C)S(=O)(=O)c2ccc(Cl)cc2)[C@@H](C)CN([C@@H](C)CO)C(=O)c2cc(NC(=O)c3ccncc3)ccc2O1 | inactive
C[C@H](CO)N1C[C@H](C)[C@H](CN(C)Cc2ccc(C(=O)O)cc2)Oc2ccc(NS(C)(=O)=O)cc2CC1=O | inactive
CN1C(=O)c2cc(NC(=O)C3CCOCC3)ccc2OC[C@@H]2O[C@H](CC(=O)NCc3ccccc3F)CC[C@@H]21 | inactive
C[C@H](CO)N1C[C@H](C)[C@@H](CN(C)C(=O)c2ccc3c(c2)OCO3)Oc2ncc(C3=CCCC3)cc2C1=O | inactive
CCC(=O)Nc1ccc2c(c1)OC[C@H](C)N(C(=O)CN1CCOCC1)C[C@@H](C)[C@@H](OC)CN(C)C2=O | inactive
CN1CCN(C(=O)C[C@@H]2CC[C@H]3[C@@H](COc4ccc(NC(=O)c5cscn5)cc4C(=O)N3C)O2)CC1 | inactive
C[C@@H]1CN([C@@H](C)CO)C(=O)c2cc(NC(=O)Nc3ccc(C(F)(F)F)cc3)ccc2O[C@@H](C)CCCCO[C@H]1CN(C)Cc1ccc(Cl)c(Cl)c1 | inactive
C[C@@H]1CN([C@H](C)CO)C(=O)c2cc(NC(=O)C3CCCCC3)ccc2O[C@@H]1CN(C)Cc1ccc(-c2ccccc2)cc1 | active
N=C(N)NCCC[C@H](N)C(=O)NCC(=O)N[C@@H](CC(=O)O)C(=O)N[C@@H](CO)C(=O)O | inactive
Cc1ccc(S(=O)(=O)Nc2ccc3c(c2)C(=O)N([C@@H](C)CO)C[C@@H](C)[C@@H](CN(C)C(=O)Nc2ccc(C(F)(F)F)cc2)O3)cc1 | inactive
C[C@@H]1CCCCO[C@@H](CN(C)Cc2ccc(C(F)(F)F)cc2)[C@H](C)CN([C@H](C)CO)C(=O)c2cc(NS(C)(=O)=O)ccc2O1 | inactive

Tested on: S. aureus RN4220
Experiment: growth inhibition call (relative growth <= 0.2)
Conditions: 50 µM

SMILES | growth inhibition call
C[C@H]1CCCCO[C@H](CN(C)Cc2ccc3c(c2)OCO3)[C@@H](C)CN([C@@H](C)CO)C(=O)c2cc(NC(=O)Nc3ccc(F)cc3)ccc2O1 | inactive
O=C(C[C@@H]1C[C@@H]2c3cc(NS(=O)(=O)c4ccc(F)cc4)ccc3O[C@@H]2[C@H](CO)O1)NCc1cccc(F)c1 | inactive
C[C@H](CO)N1C[C@H](C)[C@H](CN(C)Cc2ccc(C(=O)Nc3ccccc3N)cc2)Oc2ccc(NC(=O)NC3CCCCC3)cc2C1=O | inactive
O=C(CCCCCNC(=O)OCc1ccc([C@H]2[C@H](C(=O)NCc3ccccc3)c3ccccc3C(=O)N2Cc2ccccc2)cc1)NO | inactive
C[C@@H]1CN([C@H](C)CO)C(=O)c2cccc(NC(=O)NC3CCCCC3)c2O[C@H]1CN(C)C(=O)Nc1cccc2ccccc12 | inactive
CCC1(O)CC2CN(CCc3c([nH]c4ccccc34)C(C(=O)OC)(c3cc4c(cc3OC)N(C=O)C3C(O)(C(=O)OC)C(OC(C)=O)C5(CC)C=CCN6CCC43C65)C2)C1.O=S(=O)(O)O (stereo not drawn) | inactive
C[C@H]1CCCCO[C@@H](CN(C)Cc2ccncc2)[C@@H](C)CN([C@@H](C)CO)C(=O)c2cc(NC(=O)NC3CCCCC3)ccc2O1 | inactive
COc1ccc(NC(=O)Nc2ccc3c(c2)[C@@H]2C[C@@H](CC(=O)NCc4ccccn4)O[C@@H](CO)[C@@H]2O3)cc1 | inactive
C[C@@H]1CN([C@@H](C)CO)C(=O)c2cccc(NC(=O)C3CCCCC3)c2O[C@H]1CN(C)C(=O)Nc1cccc2ccccc12 | inactive
CSC1=N[C@@]2(C)CCCC[C@@H]2c2c1ccc1ccccc21 | inactive
Cc1noc(C)c1NC(=O)Nc1ccc2c(c1)CC(=O)N([C@H](C)CO)C[C@@H](C)[C@@H](CN(C)S(=O)(=O)c1cn(C)cn1)O2 | inactive
CCS(=O)(=O)N1CC[C@]2(CC1)CN(Cc1ccc3c(c1)OCO3)[C@H](CO)c1[nH]c3cc(ccc3c12)OC | inactive
CCS(=O)(=O)Nc1ccc2c(c1)C(=O)N(C)[C@@H]1CC[C@@H](CC(=O)NCc3ccccc3F)O[C@@H]1CO2 | inactive
CNC[C@H]1Oc2ccc(NC(=O)CCN3CCOCC3)cc2CC(=O)N([C@H](C)CO)C[C@@H]1C | inactive
C[C@@H]1CCCCO[C@H](CN(C)Cc2ccncc2)[C@@H](C)CN([C@H](C)CO)C(=O)c2cc(NC(=O)Cc3ccccc3)ccc2O1 | inactive
CO[C@H]1CN(C)C(=O)c2cc(NC(C)=O)ccc2OC[C@H](C)N(S(=O)(=O)c2cn(C)cn2)C[C@H]1C | inactive
COc1ccc(S(=O)(=O)N(C)C[C@@H]2OCCCC[C@@H](C)Oc3ccc(NC(=O)Nc4c(C)noc4C)cc3C(=O)N([C@@H](C)CO)C[C@H]2C)cc1 | inactive
